This note sets out measurements from ChEMBL document CHEMBL4888484, “Replenishing the malaria drug discovery pipeline: Screening and hit evaluation of the MMV Hit Generation Library 1 (HGL1) against asexual blood stage Plasmodium falciparum ,using a nano luciferase reporter read-out” (2022).

Hit rate of the full screen: of about 150,000 compounds, about 540 (0.36%) showed an effect of 50% or more. The list shows a part of the results.

For the assay, the system named is Plasmodium falciparum. The experiment in a line: Primary screen in NF54 nanoGlo assay, in single point, at 2uM, 72h; a lower Z score goes with more inhibition. It is filed as functional, Erythrocyte. The following applies: timepoint 72 hour.
As for `C#Cc1ccc(C(=O)N[C@H]2CCc3c(nc(C)n3CCO)C2)cc1`, the “% Inhibition” value is 15% and the Z score is given as -1.9.

With `CC[C@@H](C(=O)N(C)Cc1cn(CC)nc1C)n1cccn1`, the “% Inhibition” value was -8% and the Z score was 1.18.

With `Cc1n[nH]c(C)c1CCC(=O)N1CC[C@@](O)(C2CCOCC2)[C@H](C)C1`, the “% Inhibition” value is recorded as -3% and the Z score was 0.48.

`CN([C@H]1CCN(c2ccccc2)C1=O)S(C)(=O)=O`: the “% Inhibition” value is -3% and the Z score stood at 0.34.

Turning to `Cc1ccc(OCCC(=O)N2CCC(c3ccnnc3)CC2)cc1C`, the “% Inhibition” value was -7% and the Z score is on record as 0.95.

Regarding `COc1ccc(CNC(=O)c2cc(-c3ccc(OC)cc3)nc3n[nH]c(-c4ccc(F)cc4)c23)cc1`, the “% Inhibition” value is on record as -7% and the Z score is listed as 0.68.

In the case of `COc1ccc(Cc2nc(-c3ccc4c(c3)OCO4)n(CCO)n2)cc1`, the “% Inhibition” value is reported as -22% and the Z score was found to be 2.11.

Regarding `COC(=O)c1ccc(C(=O)N2CC[C@H](n3c(C)nc4ccccc43)C2)cc1`, the “% Inhibition” value is -31% and the Z score is 3.93.

In the case of `NC(=O)[C@@H]1C[C@H](Oc2ccccc2)CN1Cc1cccnc1`, the “% Inhibition” value was -14% and the Z score stood at 1.78.

`CN1CC[C@H](C(=O)N(Cc2ccc3c(c2)OCO3)C2(C)CCCC2)CC1=O`: the “% Inhibition” value is on record as -15% and the Z score is reported as 2.91.

As for `CCCC1(CCC)CCCN1C(=O)CCc1ccnc(C)n1`, the “% Inhibition” value was -15% and the Z score came to 1.59.

In the case of `Cc1nccn1COC(=O)OC1CCCCC1`, the “% Inhibition” value is recorded as -3% and the Z score is 0.41.

For `CC1C(O)CC2NC1c1ccccc1OCCOCCOc1ccccc12` (stereo not drawn), the “% Inhibition” value is given as -4% and the Z score was 0.61.

Consider `Cn1c(CCNC(=O)Nc2nccs2)nc2c(F)cccc21`, for which the “% Inhibition” value is -7% and the Z score amounted to 0.99.

Take `CCn1cc(CN2CC[C@H]3C(=O)NCCCCCCN(Cc4ccncc4)[C@@H]3C2)c(C)n1`: the “% Inhibition” value worked out at 2% and the Z score is -0.2.

For the compound `O=C(Nc1ccccc1OCCc1ccccn1)N1CCC(F)(F)CC1`, the “% Inhibition” value is reported as -6% and the Z score amounted to 1.16.

Turning to `COCc1nc(CCNC(=O)CC(C)C)no1`, the “% Inhibition” value came to 1% and the Z score is listed as -0.11.

For the compound `COc1cccc(CO[C@@H]2CN(C(=O)CC3CCCC3)CC(=O)N(Cc3ccccn3)C2)c1`, the “% Inhibition” value is given as -5% and the Z score stood at 0.85.

In the case of `Cc1ccc2ncc(CNc3nc(C4CC4)no3)n2c1`, the “% Inhibition” value is on record as 2% and the Z score is reported as -0.39.

For `Cc1cnc(N2CCCC[C@H]2c2ncccn2)nc1`, the “% Inhibition” value is listed as -9% and the Z score is 1.79.

For `CN(C[C@@H]1OCCc2ccccc21)C(=O)CCc1ncccn1`, the “% Inhibition” value is listed as -10% and the Z score is on record as 1.38.

As for `COc1cc(NC(=O)N2CCN(c3c(F)cccc3F)CC2)ccn1`, the “% Inhibition” value is -14% and the Z score was 2.26.

Regarding `CN1CC[C@H]2CC[C@@H](C1)N2C(=O)Nc1cccc(Cl)c1`, the “% Inhibition” value came out at 7% and the Z score is listed as -1.15.

Regarding `CS(=O)(=O)CC1(CC(=O)NCC2(Cc3ccccc3)CCC2)CC1`, the “% Inhibition” value is given as -1% and the Z score came out at 0.16.

Turning to `CC1(C)CC[C@H](CCNC(=O)Cn2ncc3cccnc32)OC1`, the “% Inhibition” value is -2% and the Z score is listed as 0.44.

For `CCc1onc(C)c1C(=O)Nc1nnc(C(C)C)[nH]1`, the “% Inhibition” value is -8% and the Z score was 0.77.

`CCOC(=O)C(C)C(C)NC(=O)c1cccc(O)c1OC(F)(F)F` (stereo not drawn): the “% Inhibition” value was 0% and the Z score was 0.04.

Turning to `COCc1cc(=O)n(CC(=O)Nc2ccccc2OC)c(N2CCOCC2)n1`, the “% Inhibition” value was -9% and the Z score is listed as 0.82.

Take `Cc1ccc2c(c1)N(CC(=O)N[C@@H](C)CCc1ccccc1)C=NS2(=O)=O`: the “% Inhibition” value is on record as -14% and the Z score is 1.66.

Turning to `CC[C@@H](Cc1ccccc1)NS(=O)(=O)c1ccc2c(c1)CCN2C(=O)C1CCC1`, the “% Inhibition” value is -2% and the Z score is listed as 0.34.

As for `CCCNC(=O)NC(=O)CNC1(C(=O)OC(C)(C)C)CCCC1`, the “% Inhibition” value is listed as -6% and the Z score is 1.29.

For `CCc1nsc(NCC2=NS(=O)(=O)c3ccccc3N2)n1`, the “% Inhibition” value was -2% and the Z score was found to be 0.35.

In the case of `CC(C)(C)CC(CO)NC(=O)C(O)c1ccccc1` (stereo not drawn), the “% Inhibition” value is on record as -5% and the Z score is recorded as 0.59.

Take `COc1ccc(S(=O)(=O)N(CCO)Cc2nccn2C)c2c1CCCC2`: the “% Inhibition” value was -1% and the Z score is on record as 0.16.

`COc1cccc(OC)c1OC1CCN(c2ncccn2)CC1`: the “% Inhibition” value was -4% and the Z score came out at 0.35.

For `CCC(C)C(NC(=O)c1ccc(OC)cc1)c1nc(-c2ccco2)no1` (stereo not drawn), the “% Inhibition” value was -17% and the Z score is 2.03.

Consider `Cc1ccc2oc(C(=O)c3ccc(Cl)cc3)c(-c3cnn(-c4ccccc4)c3)c2c1`, for which the “% Inhibition” value is on record as -32% and the Z score was found to be 3.81.

Turning to `O=C(Nc1cc(C(F)(F)F)n[nH]1)c1ccn2cncc2c1`, the “% Inhibition” value is listed as -3% and the Z score amounted to 0.41.

`O=S(=O)(C1CC1)N1CCCN(Cc2cc3n(n2)CCCC3)CC1`: the “% Inhibition” value is given as -3% and the Z score amounted to 0.55.

Take `CC(C)(C)C1CCC2(CC1)NC(=O)c1ccccc1O2` (stereo not drawn): the “% Inhibition” value was -15% and the Z score is listed as 1.59.

As for `COc1ccc(N2C(=O)c3ccccc3N[C@@H]2c2csnn2)c(OC)c1`, the “% Inhibition” value was -4% and the Z score amounted to 0.52.

In the case of `O=C(c1ccsc1)N1CC[C@H](Cc2nnc(-c3cccnc3)[nH]2)C1`, the “% Inhibition” value was -4% and the Z score is 0.66.

For the compound `Cc1ccccc1CN1CC(=O)N(C2CC2)C1`, the “% Inhibition” value is -18% and the Z score came out at 2.74.

With `CCOC(=O)Cc1c(C)nc2ncnn2c1N1CCN(CC(=O)N(C)c2ccccc2)CC1`, the “% Inhibition” value is reported as 2% and the Z score is listed as -0.27.

In the case of `Cc1cc(C)nc(NCCc2ccn(C)n2)n1`, the “% Inhibition” value is listed as -14% and the Z score amounted to 1.88.

As for `C[C@H]1CCC(=O)N1Cc1c(F)ccc(Cl)c1Cl`, the “% Inhibition” value is -11% and the Z score stood at 1.33.

Regarding `CCN1C[C@@H](c2ccccc2)CC2(CCN(Cc3csc(NC)n3)CC2)C1`, the “% Inhibition” value was -4% and the Z score is 0.92.

Turning to `C[C@@H](CCc1ccccc1)NC(=O)C1CCN(S(=O)(=O)Cc2ccccc2)CC1`, the “% Inhibition” value was -5% and the Z score was found to be 0.87.

As to `c1ccc(-c2cnc3n2C[C@H](CNCc2ccncc2)OC3)cc1`, the “% Inhibition” value is on record as -4% and the Z score turned out to be 0.55.

As for `c1ccc(Oc2ccc3[nH]c(-c4nnc(-c5ccccn5)s4)cc3c2)cc1`, the “% Inhibition” value turned out to be 28% and the Z score is on record as -3.67.

Regarding `O=C(CCc1nc2ccccc2c(=O)[nH]1)N1CC[C@H](N2CCC2)C1`, the “% Inhibition” value came to 0% and the Z score is -0.08.

For `COC(=O)[C@H](NC(=O)c1cc(C#N)cn1C)c1cc(C)c(O)c(C)c1`, the “% Inhibition” value was 2% and the Z score is reported as -0.31.

Consider `CCN1CCc2c(c(CN(CC3CC3)C(=O)c3cccc(OC)c3)nn2-c2ccccc2)C1`, for which the “% Inhibition” value was 13% and the Z score was -2.2.

For `COC1(C(F)(F)F)CCN(c2cnccn2)CC1`, the “% Inhibition” value is -3% and the Z score was 0.58.
